# This is one part of the list.
# B1: SSR1 (Sclerotium rolfsii), A0A0M3KL30 (protein)
# chain: TYKITVRVYQTNPDAFFHPVEKTVWKYANGGTWTITDDQHVLTMGGSGTSGTLRFHADNGESFTATFGVHNYKRWCDIVTNLAADETGMVINQQYYSQKNREEARERQLSNYQVKNAKGRNFQIVYTEAEGNDLHANLIIG
# How the values were obtained:
# Test in all cases: glycan array binding signal (z-score within array); higher = stronger binding
# Settings in all cases: glycan notation: IUPAC condensed, linker removed
# [1] = biological target: Gal6S(b1-4)Glc
# Outline: (§1)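 Negative Z-scores can be read as non-binding. The Z-score is calculated within each array and then averaged across arrays of one protein sequence at different concentrations or buffers and across linkers. Arrays, 3228 in all, were curated from the Consortium for Functional Glycomics database and kept only where the protein sequence was available.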
# [2] = biological target: Gal6S(b1-4)Glc6S
# Outline: as §1
# [3] = biological target: Gal6S(b1-4)GlcNAc
# Outline: as §1
# [4] = biological target: Gal6S(b1-4)GlcNAc6S
# Outline: as §1
# [5] = biological target: GalNAc(a1-3)Gal
# Outline: as §1
# [6] = biological target: GalNAc(a1-3)GalNAc
# Outline: as §1
# [7] = biological target: GalNAc(a1-3)GalNAc(b1-3)Gal(a1-4)Gal(b1-4)Glc
# Outline: as §1
# [8] = biological target: GalNAc(a1-3)GalNAc(b1-3)Gal(a1-4)Gal(b1-4)GlcNAc
# Outline: as §1
# [9] = biological target: GalNAc(b1-3)Gal
# Outline: as §1
# [10] = biological target: GalNAc(b1-3)Gal(a1-4)Gal(b1-4)GlcNAc
# Outline: as §1
# [11] = biological target: GalNAc(b1-3)Gal(a1-4)Gal(b1-4)GlcNAc(b1-3)Gal(b1-4)Glc
# Outline: as §1
# [12] = biological target: GalNAc(b1-3)Gal(a1-6)Gal(b1-4)Glc
# Outline: as §1
# [13] = biological target: GalNAc(b1-3)GalNAc
# Outline: as §1
# [14] = biological target: GalNAc(b1-3)GlcNAc
# Outline: as §1
# [15] = biological target: GalNAc(b1-4)Gal(b1-4)Glc
# Outline: as §1
# [16] = biological target: GalNAc(b1-4)GlcNAc
# Outline: as §1
# [17] = biological target: GalNAc(b1-4)GlcNAc(b1-2)Man
# Outline: as §1
# [18] = biological target: GalNAc(b1-4)GlcNAc(b1-2)Man(a1-3)[GalNAc(b1-4)GlcNAc(b1-2)Man(a1-6)]Man(b1-4)GlcNAc(b1-4)GlcNAc
# Outline: as §1
# [19] = biological target: GalNAc(b1-4)GlcNAc(b1-3)GalNAc(b1-4)GlcNAc
# Outline: as §1
# [20] = biological target: GalNAc(b1-4)GlcNAc6S
# Outline: as §1
# [21] = biological target: GalNAc(b1-6)GalNAc
# Outline: as §1
# [22] = biological target: GalNAc3S(b1-4)GlcNAc
# Outline: as §1
# [23] = biological target: GalNAc3S(b1-4)GlcNAc3S
# Outline: as §1
# [24] = biological target: GalNAc3S(b1-4)[Fuc(a1-3)]GlcNAc
# Outline: as §1
# [25] = biological target: GalNAc4S6S(b1-4)GlcNAc
# Outline: as §1
# [26] = biological target: GalNAc6S(b1-4)GlcNAc
# Outline: as §1
# [27] = biological target: Glc(a1-4)Glc
# Outline: as §1
# [28] = biological target: Glc(a1-4)Glc(a1-4)Glc(a1-4)Glc
# Outline: as §1
# [29] = biological target: Glc(a1-6)Glc(a1-6)Glc
# Outline: as §1
# [30] = biological target: Glc(a1-6)Glc(a1-6)Glc(a1-6)Glc
# Outline: as §1
# [31] = biological target: Glc(b1-4)Glc
# Outline: as §1
# [32] = biological target: Glc(b1-6)Glc
# Outline: as §1
# [33] = biological target: GlcA(b1-3)Gal
# Outline: as §1
# [34] = biological target: GlcA(b1-3)GlcNAc
# Outline: as §1
# [35] = biological target: GlcA(b1-6)Gal
# Outline: as §1
# [36] = biological target: GlcA3S(b1-3)Gal(b1-4)GlcNAc(b1-2)Man
# Outline: as §1
# [37] = biological target: GlcA3S(b1-3)Gal(b1-4)GlcNAc(b1-3)Gal(b1-4)Glc
# Outline: as §1
# [38] = biological target: GlcNAc(a1-3)Gal(b1-4)GlcNAc
# Outline: as §1
# [39] = biological target: GlcNAc(a1-4)Gal(b1-3)GlcNAc
# Outline: as §1
# [40] = biological target: GlcNAc(a1-4)Gal(b1-4)GalNAc
# Outline: as §1
# [41] = biological target: GlcNAc(a1-4)Gal(b1-4)GlcNAc
# Outline: as §1
# [42] = biological target: GlcNAc(a1-4)Gal(b1-4)GlcNAc(b1-3)Gal(b1-4)Glc
# Outline: as §1
# [43] = biological target: GlcNAc(a1-4)Gal(b1-4)GlcNAc(b1-3)Gal(b1-4)GlcNAc
# Outline: as §1
# [44] = biological target: GlcNAc(a1-4)Gal(b1-4)GlcNAc(b1-3)Gal(b1-4)GlcNAc(b1-3)Gal(b1-4)GlcNAc
# Outline: as §1
# [45] = biological target: GlcNAc(a1-4)Gal(b1-4)GlcNAc(b1-3)Gal(b1-4)[Fuc(a1-3)]GlcNAc(b1-3)Gal(b1-4)[Fuc(a1-3)]GlcNAc
# Outline: as §1
binder,measurement,setting,value
B1,glycan array binding signal (z-score),[1],-0.323
same,glycan array binding signal (z-score),[2],-0.336
same,glycan array binding signal (z-score),[3],-0.336
same,glycan array binding signal (z-score),[4],-0.338
same,glycan array binding signal (z-score),[5],0.124
same,glycan array binding signal (z-score),[6],0.382
same,glycan array binding signal (z-score),[7],0.005
same,glycan array binding signal (z-score),[8],-0.307
same,glycan array binding signal (z-score),[9],-0.337
same,glycan array binding signal (z-score),[10],-0.335
same,glycan array binding signal (z-score),[11],-0.354
same,glycan array binding signal (z-score),[12],-0.342
same,glycan array binding signal (z-score),[13],0.998
same,glycan array binding signal (z-score),[14],-0.334
same,glycan array binding signal (z-score),[15],-0.337
same,glycan array binding signal (z-score),[16],-0.098
same,glycan array binding signal (z-score),[17],-0.338
same,glycan array binding signal (z-score),[18],-0.322
same,glycan array binding signal (z-score),[19],-0.339
same,glycan array binding signal (z-score),[20],-0.334
same,glycan array binding signal (z-score),[21],-0.332
same,glycan array binding signal (z-score),[22],-0.34
same,glycan array binding signal (z-score),[23],-0.341
same,glycan array binding signal (z-score),[24],-0.334
same,glycan array binding signal (z-score),[25],-0.347
same,glycan array binding signal (z-score),[26],-0.347
same,glycan array binding signal (z-score),[27],-0.333
same,glycan array binding signal (z-score),[28],-0.337
same,glycan array binding signal (z-score),[29],-0.333
same,glycan array binding signal (z-score),[30],-0.337
same,glycan array binding signal (z-score),[31],-0.318
same,glycan array binding signal (z-score),[32],-0.329
same,glycan array binding signal (z-score),[33],-0.393
same,glycan array binding signal (z-score),[34],-0.261
same,glycan array binding signal (z-score),[35],-0.335
same,glycan array binding signal (z-score),[36],-0.325
same,glycan array binding signal (z-score),[37],-0.342
same,glycan array binding signal (z-score),[38],3.12
same,glycan array binding signal (z-score),[39],2.74
same,glycan array binding signal (z-score),[40],1.03
same,glycan array binding signal (z-score),[41],3.11
same,glycan array binding signal (z-score),[42],3.37
same,glycan array binding signal (z-score),[43],4.43
same,glycan array binding signal (z-score),[44],6.33
same,glycan array binding signal (z-score),[45],3.01

# Reference: the supplement of paper PMC8728848
